# Reference: the BET-seq Pho4 binding data (Le et al. 2018)
# Some of the results follow. Values were computed here from the reads of four pooled replicates and scatter widely.
# Biological target: T1, Pho4 (S. cerevisiae) (UniProt P07270)
# T1 sequence: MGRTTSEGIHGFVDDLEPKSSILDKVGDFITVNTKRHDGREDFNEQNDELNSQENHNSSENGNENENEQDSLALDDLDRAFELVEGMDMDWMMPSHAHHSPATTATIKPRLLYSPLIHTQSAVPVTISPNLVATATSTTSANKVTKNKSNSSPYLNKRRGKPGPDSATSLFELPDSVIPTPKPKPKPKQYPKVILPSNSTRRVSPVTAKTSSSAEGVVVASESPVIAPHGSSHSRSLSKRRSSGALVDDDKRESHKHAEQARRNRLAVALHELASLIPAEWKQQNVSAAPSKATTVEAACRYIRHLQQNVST
# Experiment: relative binding free energy (BET-seq); higher = weaker binding
# Settings: reference: library average
row,Sequence,relative binding free energy
1,TTGTTCACGTGGGCTC,0.22 kcal/mol
2,GTTGACACGTGATATT,0.14 kcal/mol
3,TTTGGCACGTGTAACT,-0.01 kcal/mol
4,AAGTGCACGTGGTGTA,-0.17 kcal/mol
5,TGGAACACGTGAGGTT,0.34 kcal/mol
6,TCGGACACGTGGGTAT,-0.11 kcal/mol
7,TGCATCACGTGAGGTG,0.38 kcal/mol
8,AGATACACGTGAGGGG,0.18 kcal/mol
9,TGCGGCACGTGTCAGA,0.05 kcal/mol
10,TGAACCACGTGGGTTG,-0.26 kcal/mol
11,TGAGTCACGTGAGATG,0.32 kcal/mol
12,ATTGGCACGTGTGGTA,-0.08 kcal/mol
13,AGAAGCACGTGCGGGG,-0.09 kcal/mol
14,GTAGTCACGTGACGGT,0.17 kcal/mol
15,TATCGCACGTGGGTTT,-0.26 kcal/mol
16,GTTGACACGTGTTAAA,0.15 kcal/mol
17,TGATGCACGTGCAGGG,-0.01 kcal/mol
18,TGAGGCACGTGGTGGA,-0.09 kcal/mol
19,GGGGTCACGTGATTAT,0.36 kcal/mol
20,CTATGCACGTGGGTGG,-0.2 kcal/mol
21,ATATGCACGTGTAGAG,-0.03 kcal/mol
22,TGCCTCACGTGTGGTT,0.13 kcal/mol
23,TTGGGCACGTGCTCTT,-0.16 kcal/mol
24,TAGGGCACGTGGTTAG,-0.1 kcal/mol
25,CGGTTCACGTGAGTGA,0.25 kcal/mol
26,GAGTTCACGTGGGATT,0.35 kcal/mol

row,Sequence,relative binding free energy
1,TGTAGCACGTGGAGAC,0.06 kcal/mol
2,GGTTTCACGTGATAAG,0.22 kcal/mol
3,GTGTACACGTGTTGCG,0.14 kcal/mol
4,GTTTGCACGTGGGACA,-0.02 kcal/mol
5,CGAGACACGTGTATGG,0.14 kcal/mol
6,TGGGTCACGTGACAAG,0.12 kcal/mol
7,TTATACACGTGCGGAT,0.1 kcal/mol
8,CCGTGCACGTGGAGGG,-0.12 kcal/mol
9,GTTATCACGTGTATAT,0.19 kcal/mol
10,GAGTGCACGTGGAATT,0.31 kcal/mol
11,GGGTACACGTGCTAGG,0.03 kcal/mol
12,GTGGACACGTGTTATT,0.11 kcal/mol
13,TCTGACACGTGATGGT,0.04 kcal/mol
14,GTGAACACGTGTGATT,0.07 kcal/mol
15,ATTACCACGTGGGGGC,-0.12 kcal/mol
16,TTATACACGTGAGTGC,0.28 kcal/mol
17,TTACACACGTGGTGAG,-0.07 kcal/mol
18,GGGTACACGTGAGGAA,0.37 kcal/mol
19,GGGATCACGTGTGTGC,0.23 kcal/mol
20,AAATGCACGTGTGTAT,-0.04 kcal/mol
21,TAGGCCACGTGCTGGT,-0.21 kcal/mol
22,AGAGGCACGTGCGTTA,-0.26 kcal/mol
23,GTTTTCACGTGTTGAA,0.28 kcal/mol
24,TCTTGCACGTGTTTGT,0.06 kcal/mol
25,ATCGTCACGTGGTTTG,0.15 kcal/mol
26,CGATGCACGTGATAGT,0.16 kcal/mol

row,Sequence,relative binding free energy
1,GCGAGCACGTGGGAGG,-0.34 kcal/mol
2,ATTGGCACGTGAGGGG,0.25 kcal/mol
3,GCTGTCACGTGGATGG,0.09 kcal/mol
4,AACAGCACGTGGTGGT,-0.26 kcal/mol
5,CCGTTCACGTGGGGTA,0.18 kcal/mol
6,TGTGCCACGTGGAAGG,-0.08 kcal/mol
7,GGGTACACGTGTGGTG,0.17 kcal/mol
8,TTGTTCACGTGTTGTG,0.25 kcal/mol
9,GAATGCACGTGTATAT,0.13 kcal/mol
10,TTTGTCACGTGGTACG,0.03 kcal/mol
11,ATTGCCACGTGGCAGG,-0.06 kcal/mol
12,TCGTGCACGTGTCGGT,-0.09 kcal/mol
13,TAGCGCACGTGTGGGC,-0.07 kcal/mol
14,CTTAGCACGTGATTTT,0.03 kcal/mol
15,TGAGACACGTGTATGG,-0.03 kcal/mol
16,TATGGCACGTGATGGG,-0.03 kcal/mol
17,TCGGCCACGTGGATGG,-0.01 kcal/mol
18,TAGGTCACGTGTGGTT,0.14 kcal/mol
19,AGTTGCACGTGTTCTT,-0.04 kcal/mol
20,TATGGCACGTGTTTTC,-0.15 kcal/mol
21,TACTTCACGTGAAGTT,0.35 kcal/mol
22,GAGGGCACGTGCAGGA,-0.17 kcal/mol
23,GAATTCACGTGTGGGG,0.34 kcal/mol
24,GAACGCACGTGTAGTG,0.12 kcal/mol
25,GGGGGCACGTGAATTA,0.06 kcal/mol
26,GTCAGCACGTGAGGGG,0.08 kcal/mol

row,Sequence,relative binding free energy
1,TTCATCACGTGTTTTT,0.2 kcal/mol
2,TGCCTCACGTGTGATG,0.31 kcal/mol
3,TCTGGCACGTGAGTAG,0.08 kcal/mol
4,TCTGGCACGTGTATAG,-0.09 kcal/mol
5,GGGCACACGTGAAGGT,0.27 kcal/mol
6,CGTAGCACGTGAGAGT,0.21 kcal/mol
7,GTACTCACGTGAGGGC,0.47 kcal/mol
8,AAGGGCACGTGTGGTC,0.04 kcal/mol
9,TCGTGCACGTGAATTG,0.17 kcal/mol
10,TCTTTCACGTGTTAAT,0.11 kcal/mol
11,TTAGTCACGTGTGATT,0.15 kcal/mol
12,GGTGGCACGTGACTGT,0.15 kcal/mol
13,ATTGGCACGTGCATGG,-0.24 kcal/mol
14,TGGGCCACGTGTGGAG,-0.05 kcal/mol
15,GGCGGCACGTGCCAGG,-0.08 kcal/mol
16,TTTGTCACGTGCACGG,-0.01 kcal/mol
17,TGTTACACGTGGACTG,0.2 kcal/mol
18,GTTCGCACGTGGTTGT,-0.06 kcal/mol
19,TTGCTCACGTGCTGGT,0.28 kcal/mol
20,GGTGCCACGTGGTAGA,0 kcal/mol
21,TTATTCACGTGAAAGT,0.32 kcal/mol
22,TTGTTCACGTGATGTT,0.39 kcal/mol
23,GGTTTCACGTGGGTAA,0.27 kcal/mol
24,GGGATCACGTGAGCTT,0.37 kcal/mol
25,TAGGGCACGTGTAAGA,0.05 kcal/mol
26,GTCGTCACGTGATTTT,0.3 kcal/mol

row,Sequence,relative binding free energy
1,TGGTGCACGTGGTTAT,-0.03 kcal/mol
2,TTTTACACGTGCGTCG,0.06 kcal/mol
3,TTCAGCACGTGGGGGG,-0.26 kcal/mol
4,AGAGTCACGTGGATAT,0.17 kcal/mol
5,TTGATCACGTGGGTGC,0 kcal/mol
6,TGGTTCACGTGGTGTG,0.23 kcal/mol
7,TGTGTCACGTGGCGAA,-0.03 kcal/mol
8,GGGGCCACGTGCATGG,-0.17 kcal/mol
9,AAAGCCACGTGAGGGT,0.18 kcal/mol
10,TTACGCACGTGTAGTG,-0.02 kcal/mol
11,GTGTGCACGTGGAAAG,0.09 kcal/mol
12,GGGTTCACGTGATCTG,0.33 kcal/mol
13,TTGCGCACGTGATGTA,-0.05 kcal/mol
14,AATTGCACGTGTTGCA,0.18 kcal/mol
15,TGGTACACGTGGAGTG,0.06 kcal/mol
16,GATTTCACGTGTGGAT,0.49 kcal/mol
17,TGTAGCACGTGAGCGA,0.09 kcal/mol
18,GGGTGCACGTGGGGAG,-0.06 kcal/mol
19,CTAAACACGTGGGTGG,-0.1 kcal/mol
20,GGTTGCACGTGAATGT,0.22 kcal/mol
21,TGTTTCACGTGGCCGA,0.37 kcal/mol
22,GAGCGCACGTGGTAAG,0.01 kcal/mol
23,CTGGACACGTGTGTGG,0.01 kcal/mol
24,ATTGGCACGTGTCTGG,-0.14 kcal/mol
25,CGGGTCACGTGTGTAT,0.08 kcal/mol
26,GTTAGCACGTGTTCGA,-0.05 kcal/mol

row,Sequence,relative binding free energy
1,ATTTTCACGTGTATGG,0.17 kcal/mol
2,CCAGTCACGTGGTGAG,0.24 kcal/mol
3,ATTCACACGTGGTGGT,0.13 kcal/mol
4,TGAGCCACGTGATGGA,0.15 kcal/mol
5,GGTGCCACGTGATTAG,0.14 kcal/mol
6,TAGAACACGTGGTAGG,-0.04 kcal/mol
7,AGGGGCACGTGATGGA,0 kcal/mol
8,GGGAGCACGTGGGACA,-0.08 kcal/mol
9,TGAGACACGTGCAGGG,0.08 kcal/mol
10,CAAGGCACGTGGGTTT,-0.16 kcal/mol
11,GCTATCACGTGGTGGA,0.06 kcal/mol
12,ACGGGCACGTGGCGGT,-0.23 kcal/mol
13,AGTTTCACGTGTTCAA,0.19 kcal/mol
14,AGTTGCACGTGGGTTA,-0.09 kcal/mol
15,ATGTGCACGTGGATTC,-0.05 kcal/mol
16,TTTGGCACGTGCCTGT,-0.16 kcal/mol
17,ATTTTCACGTGGGAGT,0.06 kcal/mol
18,TATGGCACGTGGGCGC,-0.13 kcal/mol
19,GGTTGCACGTGCTACG,0.13 kcal/mol
20,TCTAACACGTGGGGTG,-0.05 kcal/mol
21,GGCCGCACGTGGTGGT,-0.1 kcal/mol
22,GTTATCACGTGTGAGT,0.29 kcal/mol
23,TCGGGCACGTGTTTAG,0.08 kcal/mol
24,CGTGGCACGTGGTAGT,-0.27 kcal/mol
25,ATATTCACGTGACGTT,0.19 kcal/mol
26,TGGTCCACGTGTAGTA,0.12 kcal/mol

row,Sequence,relative binding free energy
1,GGTTGCACGTGGTATC,0.08 kcal/mol
2,TTTAACACGTGGGTAA,-0.14 kcal/mol
3,GTTCTCACGTGGATAG,0.27 kcal/mol
4,TCAGTCACGTGGTGAT,0.01 kcal/mol
5,GTGTTCACGTGTTATC,0.26 kcal/mol
6,GTGATCACGTGTGGAG,0.21 kcal/mol
7,AGGCGCACGTGAGGGA,0.05 kcal/mol
8,TGTTGCACGTGTCGTA,-0.07 kcal/mol
9,CAGGCCACGTGGTAGG,-0.1 kcal/mol
10,AGATACACGTGTTATT,-0.05 kcal/mol
11,CGGGGCACGTGGATTA,-0.1 kcal/mol
12,TACTGCACGTGTGGTA,-0.09 kcal/mol
13,GGGGGCACGTGGTTAA,-0.09 kcal/mol
14,TTTATCACGTGATAGA,0.24 kcal/mol
15,TATATCACGTGGGTTG,0 kcal/mol
16,GTATCCACGTGGGTAG,-0.1 kcal/mol
17,GTTTGCACGTGCTCGG,-0.14 kcal/mol
18,TTAGGCACGTGGAAGA,0.04 kcal/mol
19,CAGAACACGTGGGGGT,-0.13 kcal/mol
20,GTTGGCACGTGGGCGG,-0.24 kcal/mol
21,TGGCGCACGTGATGCT,0.02 kcal/mol
22,TGGCGCACGTGTTAGA,0.03 kcal/mol
23,GTCTGCACGTGATATG,0.14 kcal/mol
24,AGGAACACGTGTTGGA,-0.11 kcal/mol
25,TGGTGCACGTGTTCGC,-0.01 kcal/mol
26,TGTGGCACGTGATGCT,-0.12 kcal/mol

row,Sequence,relative binding free energy
1,AAGCTCACGTGGATTT,0.31 kcal/mol
2,GTTTTCACGTGGATGT,0.42 kcal/mol
3,TCTTGCACGTGTAGGC,0.12 kcal/mol
4,GTGGTCACGTGTGAAC,0.38 kcal/mol
5,GGGGGCACGTGCCTGA,-0.15 kcal/mol
6,CTTCTCACGTGTGTGG,0.34 kcal/mol
7,TTATGCACGTGGCTTG,-0.15 kcal/mol
8,GGTGGCACGTGTAAGG,0.02 kcal/mol
9,ACTGGCACGTGAAGGG,0.17 kcal/mol
10,TCGGACACGTGGCGTT,0.08 kcal/mol
11,GGTGGCACGTGGGTGT,-0.12 kcal/mol
12,CGGGGCACGTGTCGCG,-0.12 kcal/mol
13,TGGTGCACGTGCTTAT,-0.09 kcal/mol
14,GGGTACACGTGTCAGT,0.19 kcal/mol
15,GGAATCACGTGGTAAT,0.19 kcal/mol
16,GGGTTCACGTGAAGCT,0.45 kcal/mol
17,TGGTACACGTGATTTG,0.31 kcal/mol
18,TAAATCACGTGATGCT,0.29 kcal/mol
19,CTCGGCACGTGCGTGG,-0.13 kcal/mol
20,TTGTTCACGTGTCTTA,0.37 kcal/mol
21,GTTGGCACGTGAGCGC,0.13 kcal/mol
22,GTTGGCACGTGGCCTT,-0.12 kcal/mol
23,GGGGTCACGTGAAGTC,0.46 kcal/mol
24,AATTGCACGTGGAATG,0.12 kcal/mol
25,TGGTACACGTGGGAGA,0.01 kcal/mol
26,CGTTGCACGTGGTGTA,-0.08 kcal/mol

row,Sequence,relative binding free energy
1,TTTGCCACGTGATTAG,0.05 kcal/mol
2,AGAGTCACGTGTTTAA,0.09 kcal/mol
3,GTAGTCACGTGGCGCG,0.1 kcal/mol
4,TTGGCCACGTGACTGG,0.13 kcal/mol
5,CATGTCACGTGAAGTA,0.35 kcal/mol
6,CTGTGCACGTGGGTGA,-0.15 kcal/mol
7,GTGTGCACGTGACAAG,0.25 kcal/mol
8,GTTTGCACGTGTTCGC,0.02 kcal/mol
9,GGTCACACGTGGCGAG,0.1 kcal/mol
10,TTAGGCACGTGGATTG,-0.12 kcal/mol
11,TGCTCCACGTGGTGGT,-0.09 kcal/mol
12,GGGTTCACGTGGATGA,0.36 kcal/mol
13,ATGTGCACGTGCGATG,-0.07 kcal/mol
14,GGGTACACGTGGTGAG,0.06 kcal/mol
15,TAGTTCACGTGAGTAG,0.42 kcal/mol
16,GGAGACACGTGCAGGG,-0.12 kcal/mol
17,GGCTTCACGTGGCGGT,0.25 kcal/mol
18,TGGGCCACGTGGGCAG,-0.14 kcal/mol
19,ATTGCCACGTGTCGGG,0 kcal/mol
20,GAGATCACGTGGGGTG,-0.02 kcal/mol
21,ATTTTCACGTGTGAGC,0.35 kcal/mol
22,TGGGCCACGTGAATTT,0.33 kcal/mol
